The values below come from publication PMC4336329 (PLoS ONE, 2015).

Out of some 310,000 compounds screened, about 2,200 (0.71%) showed an effect of 50% or more. The effect is printed as a negative number. Some of the results follow.

For the test, the target named is human ether-à-go-go-related gene (hERG) potassium channel (human, UniProt Q12809). Kind of test: primary screen, population patch clamp on CHO cells stably expressing hERG.
human ether-à-go-go-related gene (hERG) potassium channel, sequence (Q12809 whole entry, looked up): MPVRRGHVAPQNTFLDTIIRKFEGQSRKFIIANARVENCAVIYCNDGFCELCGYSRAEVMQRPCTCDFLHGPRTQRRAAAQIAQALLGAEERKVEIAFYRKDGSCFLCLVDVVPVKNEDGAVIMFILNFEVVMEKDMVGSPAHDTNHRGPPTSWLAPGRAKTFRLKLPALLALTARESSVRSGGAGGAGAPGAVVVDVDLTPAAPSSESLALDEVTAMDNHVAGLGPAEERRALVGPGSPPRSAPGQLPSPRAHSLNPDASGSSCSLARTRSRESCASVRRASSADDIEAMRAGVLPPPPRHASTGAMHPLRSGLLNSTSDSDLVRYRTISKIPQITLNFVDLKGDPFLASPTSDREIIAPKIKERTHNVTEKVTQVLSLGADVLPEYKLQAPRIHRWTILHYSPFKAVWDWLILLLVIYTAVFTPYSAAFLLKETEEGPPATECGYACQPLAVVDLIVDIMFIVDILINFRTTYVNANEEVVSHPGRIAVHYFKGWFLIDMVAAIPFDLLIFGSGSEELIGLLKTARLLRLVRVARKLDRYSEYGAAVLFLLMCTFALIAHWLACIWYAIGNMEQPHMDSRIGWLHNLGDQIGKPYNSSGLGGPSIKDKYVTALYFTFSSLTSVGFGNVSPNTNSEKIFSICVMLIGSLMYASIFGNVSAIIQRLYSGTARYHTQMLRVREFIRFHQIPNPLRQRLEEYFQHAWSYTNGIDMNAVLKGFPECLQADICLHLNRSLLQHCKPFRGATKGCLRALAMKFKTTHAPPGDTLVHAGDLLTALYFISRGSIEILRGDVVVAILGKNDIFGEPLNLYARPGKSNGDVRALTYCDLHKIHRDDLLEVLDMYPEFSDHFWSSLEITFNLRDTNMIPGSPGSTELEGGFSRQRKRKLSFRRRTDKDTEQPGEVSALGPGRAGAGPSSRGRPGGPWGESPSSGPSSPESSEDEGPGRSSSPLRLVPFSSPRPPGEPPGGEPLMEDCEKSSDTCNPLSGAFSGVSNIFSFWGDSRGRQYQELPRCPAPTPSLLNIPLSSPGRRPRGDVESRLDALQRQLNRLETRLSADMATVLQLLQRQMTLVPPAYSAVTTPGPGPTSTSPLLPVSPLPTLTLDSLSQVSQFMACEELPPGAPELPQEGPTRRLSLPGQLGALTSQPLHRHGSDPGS
For the compound `N#CC(C#N)=C1C=CC=CN1/C(=C\c1ccccc1Cl)C(=O)c1ccccc1`, the “hERG current change (%, negative = inhibition) at 1uM” value worked out at 19.2%. As for `CC(C)NC(=O)CCCc1c[nH]c2ccccc12`, the figure is 4.22%; as for `CCOC(=O)C(O)(c1ccc(N=c2ccccn2C)cc1)C(F)(F)F` (stereo not drawn), 9.31%; as for `Cc1cc([N+](=O)[O-])nn1CC(=O)Nc1ccc(Cc2ccncc2)cc1`, 5.04%. As for `CC1CCN(CC(C)CNC(=O)c2cc(-c3ccccn3)nc3ccccc23)CC1` (stereo not drawn), the figure is -34.9%; as for `COc1ccc(-c2nc(CSCC(=O)N3CCc4ccccc43)c(C)o2)cc1OC`, 7.64%; as for `CC[C@@H](CO)NC(=O)[C@@H]1C=C2c3cccc4c3c(cn4C)C[C@H]2N(C)C1.O=C([O-])/C=C\C(=O)[O-]`, 4.58%. To `COc1ccccc1C1CC(c2ccccc2)=NN1C(=O)c1ccccc1` (stereo not drawn) belongs 10.4%; to `O=C(Nc1ccc([N+](=O)[O-])cn1)c1cc(-c2cccc(Cl)c2)nc2ccccc12`, 3.09%; to `CC1Sc2ccc(S(=O)(=O)N3CCC(C(=O)NCC(C)c4ccccc4)CC3)cc2NC1=O` (stereo not drawn), -1.4%. On to `Cc1cc(C)c(S(=O)(=O)N2CCCC(C(=O)NCc3ccncc3)C2)c(C)c1` (stereo not drawn), for which the “hERG current change (%, negative = inhibition) at 1uM” value was 0.443%. In the case of `O=C(O)C1CCCN(S(=O)(=O)c2ccc3c(c2)OCCO3)C1` (stereo not drawn), the “hERG current change (%, negative = inhibition) at 1uM” value is 25%. As to `O=C(NCc1cccs1)c1ccncc1`, the “hERG current change (%, negative = inhibition) at 1uM” value turned out to be 5.76%. As for `N#Cc1cc2ccccc2n2nnnc12`, the figure is 9.51%; as for `COCCn1c(SC(C)C(=O)NC2CCCCC2C)nc2ccccc2c1=O` (stereo not drawn), 10.9%; as for `COC(=O)c1ccc(C(=O)OC)c(NC(=O)COC(=O)C2CCCCC2)c1`, 8.49%. To `O=C(Nc1ccccc1Oc1ccccc1)c1cc([N+](=O)[O-])ccc1Cl` belongs 12.7%. For the compound `COc1ccc2[nH]c3c(NCCCOC(C)C)ncnc3c2c1`, the “hERG current change (%, negative = inhibition) at 1uM” value was found to be 22.8%. Regarding `CCOC(=O)c1cnn(-c2ccccc2)c1NC(=O)CCl`, the “hERG current change (%, negative = inhibition) at 1uM” value is on record as 12.8%.

`COc1ccc(-c2ccc3ccccc3n2)cc1`: the “hERG current change (%, negative = inhibition) at 1uM” value was determined as 13.5%. For `C/C(Cc1ccccc1)=N/NC(=O)CCCC(=O)N/N=C(/C)Cc1ccccc1`, the “hERG current change (%, negative = inhibition) at 1uM” value stood at 13.5%.

Consider `COc1ccc(NC(C)C(=O)N/N=C/c2c(O)ccc3ccccc23)cc1` (stereo not drawn), for which the “hERG current change (%, negative = inhibition) at 1uM” value came out at 18%. To `COc1ccc(OCc2cc(C(=O)NCCCc3ccccc3)no2)c(Cl)c1` belongs 0.936%; to `O=C(c1sc2ccccc2c1Cl)N(Cc1ccccc1)C1CCS(=O)(=O)C1` (stereo not drawn), 13.1%; to `O=C(O)c1ccc(NS(=O)(=O)c2cc(Cl)ccc2Cl)cc1O`, 4.19%.

For `CCOC(=O)C(NC(=O)c1ccc(F)cc1)(Nc1nnc(C)s1)C(F)(F)F` (stereo not drawn), the “hERG current change (%, negative = inhibition) at 1uM” value is on record as 5.12%. For `Br.CC1(C(=O)CSc2nc3ccccc3s2)CCC(=O)O1` (stereo not drawn), the “hERG current change (%, negative = inhibition) at 1uM” value is on record as 4.75%. To `Cc1cc(C)c2c(c1)c(C)cc1nnc(SCC(=O)c3cccs3)n12` belongs 2.84%; to `Nn1c(SCC(=O)Nc2ccc3c(c2)OCO3)nnc1C(F)(F)F`, 9.88%; to `Cc1nn(C)c(C)c1S(=O)(=O)N1CCC(C(=O)NC2CCCc3ccccc32)CC1` (stereo not drawn), 3.25%.

For the compound `O=C(NCCc1ccc2c(c1)OCCO2)c1cc(F)cc(F)c1`, the “hERG current change (%, negative = inhibition) at 1uM” value was 0.314%. To `COc1ccc(Cl)cc1NC(=O)CCN1CCN(c2ccccc2C)CC1` belongs 9.59%; to `COc1ccccc1CNc1cncnc1`, 13.6%. To `CCn1c(=S)sc2c(=O)n(-c3ccccc3)c(SC)nc21` belongs 9.01%; to `CCn1c(=N)c(C(=O)NCCCOC)cc2c(=O)n3cccc(C)c3nc21`, -47%; to `CCN1C(=O)[C@H]2[C@@H](c3ccc(Cl)cc3)N3C(=O)CN(Cc4ccccc4)C(=O)[C@@]3(C)[C@H]2C1=O`, 10.9%.

Turning to `O=C(N/N=C/c1ccsc1)c1cc(O)cc(O)c1`, the “hERG current change (%, negative = inhibition) at 1uM” value turned out to be 10.2%. As for `O=S1(=O)NC2c3ccccc3CC2O1` (stereo not drawn), the figure is 14.5%; as for `Cc1ccc(S(=O)(=O)N2CCC(NC(=O)c3ccccc3)CC2)cc1`, -0.351%. With `O=C(Nc1ccc2ncccc2c1)c1ccccc1Cl`, the “hERG current change (%, negative = inhibition) at 1uM” value turned out to be 6.96%. To `CCOC(=O)C1C2C=CC3(CN(c4ccccc4CC)C(=O)C13)O2` (stereo not drawn) belongs 9%; to `CCCS(=O)(=O)N1CCCC(C(=O)Oc2ccc(OC)cc2)C1` (stereo not drawn), 17.6%; to `Cc1ccc(NC(=O)CCC(=O)c2cccs2)c(Br)c1`, 12.5%. On to `CCCc1[nH]nc2c1C(c1cc(OC)cc(OC)c1)C(C#N)=C(N)O2` (stereo not drawn), for which the “hERG current change (%, negative = inhibition) at 1uM” value is on record as -2.26%. On to `CC1CCN(CCOc2ccc(OCc3ccccc3)cc2)CC1.O=C(O)C(=O)O`, for which the “hERG current change (%, negative = inhibition) at 1uM” value was -9%.
